Measured values published in PubChem BioAssay AID360 (National Center for Advancing Translational Sciences (NCATS), 2006).
Out of some 48,000 compounds screened, about 550 (1.1%) were called active. Another 4% or so got no clear call; they are omitted. No stated cut-off is given here; in the data, active means potency below about 15 µM; inconclusive means mostly about 16 µM to 33 µM; inactive means weaker than that. The list shows a part of the results.

These compounds were tested against Lysosomal acid glucosylceramidase (Homo sapiens) (UniProt P04062) (assay: Glucocerebrosidase). Details: purified enzyme, resorufin glucoside fluorescence (screen aimed at inhibitors), 20 min.
Chain of UniProt P04062 (P04062 whole entry, looked up): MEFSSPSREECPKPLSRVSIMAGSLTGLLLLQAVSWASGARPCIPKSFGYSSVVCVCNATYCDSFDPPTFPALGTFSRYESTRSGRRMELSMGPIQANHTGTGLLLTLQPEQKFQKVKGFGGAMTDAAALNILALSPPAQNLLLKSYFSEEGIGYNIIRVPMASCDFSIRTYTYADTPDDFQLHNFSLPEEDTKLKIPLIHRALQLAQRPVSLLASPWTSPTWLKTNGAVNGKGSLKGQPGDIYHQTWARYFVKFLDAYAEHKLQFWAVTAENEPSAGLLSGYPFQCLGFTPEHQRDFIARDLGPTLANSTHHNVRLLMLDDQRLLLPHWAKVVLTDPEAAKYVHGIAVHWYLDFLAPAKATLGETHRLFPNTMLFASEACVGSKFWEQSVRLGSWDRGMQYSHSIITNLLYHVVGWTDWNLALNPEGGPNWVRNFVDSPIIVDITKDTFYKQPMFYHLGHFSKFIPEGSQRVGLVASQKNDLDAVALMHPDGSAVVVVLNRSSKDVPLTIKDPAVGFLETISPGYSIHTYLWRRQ
Summary of the method: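 Wild-type enzyme at 0.2 nM final in 50mM citric acid/KH2PO4, 10mM sodium taurocholate, 0.01% tween-20, pH 5.9, with resorufin beta-D-glucopyranoside at 30 uM final. Compounds titrated, 20 min at RT, red fluorescence read; AC50 from titration.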
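Further: the screen sought inhibitors.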
Potency means the concentration at half of the fitted maximal effect.

Potency, inactive:
COc1cc(N)cc(NC(=O)c2ccncc2)c1 > 76.9 µM, Cc1c(C(=O)N2CCCC2)nnn1-c1nonc1N > 76.9 µM, O=C(Nc1ccc(Cl)cc1C(=O)Nc1ccc(Br)cn1)c1ccco1 > 76.9 µM, COc1ccccc1N(CN1CCCC1=O)C(=O)c1c(F)cccc1F > 76.9 µM, O=S1(=O)N=C(N2CCOCC2)c2ccccc21 > 76.9 µM, Cc1nnc(NC(=O)C2CCCN(c3ncccn3)C2)s1 (stereo unspecified) > 76.9 µM, CCC(=O)N1CCc2cc(S(=O)(=O)NCCCOC)ccc21 > 76.9 µM, CC(=O)N(C)c1nc(-c2ccc(Cl)cc2)cs1 > 76.9 µM, CCOC(=O)NC(c1ccccc1)C1CCCCC1=O (stereo unspecified) > 76.9 µM, CCOc1cc(N2CCOCC2)c(OCC)cc1NC(=O)CCC1CCCC1 > 76.9 µM, CCc1cc(C(=O)N2CCOCC2)c(NC2=NS(=O)(=O)c3ccccc32)s1 > 76.9 µM, Cn1c(=O)c2cc(S(=O)(=O)NCCC(=O)Nc3ccccc3F)ccc2n(C)c1=O > 76.9 µM, CCC(C)(C)n1nnnc1C(C(C)C)N1CCC(C(N)=O)CC1 (stereo unspecified) > 76.9 µM, O=C1c2ccccc2S(=O)(=O)N1Cc1nnc(-c2ccccc2Br)o1 > 76.9 µM, CC(C)(C)NC(=O)CN(C(=O)CS(=O)CC(=O)Nc1ccc(F)cc1)c1ccc(F)c(Cl)c1 (stereo unspecified), CCN(CC)CCNC(=O)c1c(O)c2cccc3c2n(c1=O)CCC3 > 76.9 µM, CCOC(=O)N1CCC(NC(=O)c2ccc(CNS(=O)(=O)c3ccc(F)cc3)cc2)CC1 > 76.9 µM, COc1ccc(S(=O)(=O)Nc2ccc3c(c2)OCO3)cc1OC > 76.9 µM, CCS(=O)(=O)N1CCN(c2nc(-c3ccccc3)cs2)CC1 > 76.9 µM, CC(C)(C)n1nnnc1C(c1cc2cc3c(cc2[nH]c1=O)OCCO3)N1CCSCC1 (stereo unspecified) > 76.9 µM, O=C(Cn1nnc2ccccc2c1=O)NC1CCCc2ccccc21 (stereo unspecified) > 76.9 µM, CCCNC(=O)c1n[nH]c(=O)c2ccccc12 > 76.9 µM, CNC(=O)c1c(C)nc(SCC(=O)NCc2ccc(OC)cc2)c(C#N)c1-c1ccco1 > 76.9 µM, CCOC(=O)N1CCN(C(=O)C2CC(c3ccccc3OC)=NO2)CC1 (stereo unspecified) > 76.9 µM, CCC(C)N1CC23C=CC(O2)C(C(=O)OCc2ccccc2)C3C1=O (stereo unspecified) > 76.9 µM, CCOc1nc(-c2ccc(OC)cc2)ccc1-c1noc(-c2cccnc2)n1 > 76.9 µM, CCCOc1ccc(-c2nnn(CC(=O)Nc3cccc(C(=O)OC)c3)n2)cc1 > 76.9 µM, CCN(CC)S(=O)(=O)c1ccc2[nH]cc(C(=O)NCCN3CCCCCC3)c(=O)c2c1 > 76.9 µM, Cn1ccnc1SCC(=O)Nc1sccc1C#N > 76.9 µM, N#CCSc1nnc(COc2ccc3ccccc3c2)o1 > 76.9 µM, CCn1nnc(NC(=O)c2cc(Cl)c(OC)c(Cl)c2)n1 > 76.9 µM, C[C@H](NC(=O)NCCc1ccccc1)C(=O)O > 76.9 µM, CCn1ncc2c(OCc3ccc(C#N)cc3)cc(C)nc21 > 76.9 µM, C1=CCC(/C=N/n2cnnc2)CC1 (stereo unspecified) > 76.9 µM, COc1ccc(C2=NOC(C(=O)NCc3ccccc3)C2)cc1 (stereo unspecified) > 76.9 µM, COc1ccc(N2CCN(CCCNC(=O)C3(S(=O)(=O)c4ccc(Cl)cc4)CC3)CC2)cc1 > 76.9 µM, CC(=O)NC12CC3CC(C1)CC(C(=O)OCC(=O)Nc1ncc(Cl)cc1Cl)(C3)C2 > 76.9 µM, COc1ccc(-c2nc(CN3CCC(C(=O)NC(C)C)CC3)c(C)o2)cc1OC > 76.9 µM, O=S(=O)(c1ccc2oc3ccc(S(=O)(=O)N4CCCC4)cc3c2c1)N1CCCC1 > 76.9 µM, Cc1ccc(S(=O)(=O)N2CCN(C(=O)c3ccccc3)C2C(C)C)cc1 (stereo unspecified) > 76.9 µM, O=C(CSc1nnc2c3cc(F)ccc3nc(-c3ccccc3)n12)N1CCOCC1 > 76.9 µM, COc1cccc(C(=O)SC2=NCCS2)c1 > 76.9 µM, CCN1C(=O)C2(C(C#N)=C(N)Oc3n[nH]c(COC)c32)c2ccccc21 (stereo unspecified) > 76.9 µM, O=C(CSc1ncnc2sc3c(c12)CCCCC3)NCc1ccco1 > 76.9 µM, O=C(Nc1nc(SCc2ccc(F)cc2)ns1)c1ccco1 > 76.9 µM, O=C(NC1CCN(C(=O)N2CCOCC2)CC1)c1ccccc1 > 76.9 µM, O=C(Cc1cn2ccsc2n1)Nc1ccccn1 > 76.9 µM, O=C(Nc1ccc(N2CCN(C(=O)c3ccco3)CC2)cc1)c1ccc(F)cc1 > 76.9 µM, CCn1cc(S(=O)(=O)CC(=O)Nc2ccc3c(c2)OCCO3)c2ccccc21 > 76.9 µM, CCCOc1ccc(CC(=O)NCc2ccco2)cc1OC > 76.9 µM, Cn1c(SCC2CCCO2)nnc1-c1ccncc1 (stereo unspecified) > 76.9 µM, CC(O)COc1ccc(/C(=N/O)c2ccccc2)cc1 (stereo unspecified) > 76.9 µM, COc1ccc(-n2nnnc2SCC(=O)c2cccc(OC)c2)cc1 > 76.9 µM, Cc1cccc(C)c1OCc1nnc(SCC(=O)NCc2ccccc2)o1 > 76.9 µM, O=C(O)C1CC=CCC1C(=O)Nc1ccc(S(=O)(=O)N2CCCc3ccccc32)cc1 (stereo unspecified) > 76.9 µM, CCOc1cc(C)c(C(C)C)cc1S(=O)(=O)N1CCOCC1 > 76.9 µM, Cn1c(C(=O)N2CCc3ccccc3C2)cc2c(=O)n3ccccc3nc21 > 76.9 µM, COc1ccc(-c2nnc(SCCC(=O)O)n2-c2ccccc2)cc1 > 76.9 µM, Cc1ccc(S(=O)(=O)O)c(C)c1N1CCCC1=O > 76.9 µM, N#CCCNc1ccc(OCCC#N)cc1 > 76.9 µM, COC(=O)CCCC(=O)Nc1ccc(Cl)c(Cl)c1 > 76.9 µM, CCN(CC)S(=O)(=O)c1cccc(C(=O)NC2CCCCC2)c1 > 76.9 µM, Cc1c(NC(=O)c2nn(C)c(=O)c3ccccc23)c(=O)n(-c2ccccc2)n1C > 76.9 µM, Cc1cccc(-c2ccc(C=Nc3c(C)n(C)n(-c4ccccc4)c3=O)o2)c1 > 76.9 µM, O=C(O)C1CCN1C1CCCCC1 (stereo unspecified) > 76.9 µM, Cc1ccc2nc(SC(C)C(=O)N3CCCC3)[nH]c2c1 (stereo unspecified) > 76.9 µM, COC(=O)c1ccc(NC(=O)CS(=O)(=O)Cc2ccccc2)cc1 > 76.9 µM, CCOc1ccccc1NC(=O)CN(c1ccc(OC)cc1)S(=O)(=O)c1c(C)noc1C > 76.9 µM, COC(=O)c1ccc2nc(NC(=O)CN3C(=O)CCC3=O)sc2c1 > 76.9 µM, CCc1nnc(NC(=O)CSc2nnc(COc3ccc(C#N)cc3)n2-c2ccccc2)s1 > 76.9 µM, COCCn1nnnc1C(c1ccc(OC)c(OC)c1)N1CCc2ccccc21 (stereo unspecified) > 76.9 µM, CCNC(=O)c1cc2c(=O)n3cccc(C)c3nc2n1C > 76.9 µM, COc1ccc(C(C)C)cc1S(=O)(=O)NCc1ccccn1 > 76.9 µM, CC(C)(C)NC(=O)CN(C(=O)C1(C)CC(=O)N=C2C=CC=CN21)C1CCCC1 (stereo unspecified) > 76.9 µM, CC(C(=O)O)N1C(=O)c2cccc3cccc1c23 (stereo unspecified) > 76.9 µM, N#Cc1c2ncn(CC(=O)c3ccc(Br)cc3)c(=O)c2c2n1CCC2 > 76.9 µM, CCC(=O)N1CCc2cc(S(=O)(=O)NCCC(=O)N3CCN(Cc4ccccc4)CC3)ccc21 > 76.9 µM, COc1ccc(NC(=O)C2C3C=CC4(CN(Cc5cccnc5)C(=O)C24)O3)c(OC)c1 (stereo unspecified) > 76.9 µM, CC(C)CCN1CC(C(=O)N2CCN(c3ccc(F)cc3)CC2)CC1=O (stereo unspecified) > 76.9 µM, CCOc1ccccc1-c1nc(-c2cc3ccc(C)cc3[nH]c2=O)no1 > 76.9 µM, COc1ccc(-c2noc(CN3CCC(Cc4ccccc4)CC3)n2)cc1 > 76.9 µM, O=C(O)CCc1ccc(-c2ccc(Br)cc2)o1 > 76.9 µM, CCC(C)NC(=O)CC(NS(=O)(=O)c1ccc(Cl)cc1)c1ccco1 (stereo unspecified) > 76.9 µM, O=C(CSc1nnc(Cc2cccs2)n1-c1ccccc1)NC1CCCCC1 > 76.9 µM, C=CCN1C(=O)C2(C(C#N)=C(N)Oc3n[nH]c(CCC)c32)c2ccccc21 (stereo unspecified) > 76.9 µM, O=C(CSC1=NCCS1)N1CCOCC1 > 76.9 µM, CCN(CC)CCNC(=O)c1c(O)c2c([nH]c1=O)CCCC2 > 76.9 µM, Cc1noc(C)c1COC(=O)c1cc2c(C)nn(-c3ccc(F)cc3)c2s1 > 76.9 µM, O=C1c2ccccc2-c2nccnc21 > 76.9 µM, Cc1noc(C)c1COC(=O)COc1ccc2c(C)cc(=O)oc2c1 > 76.9 µM, COC(=O)Cc1ccc(NC(=O)c2ccc(Br)o2)cc1 > 76.9 µM
